{
  "source": "PubChem BioAssay AID652104",
  "about": "(National Center for Advancing Translational Sciences (NCATS), 2013)",
  "note": "Out of some 410,000 compounds screened, about 7,200 (1.8%) were called active. The shares of active, inactive and inconclusive entries below differ from those in the screen. Calls follow the shape of the dose curve; as a rule, active = well fitted activation curve with a large enough effect; inconclusive = small, poorly fitted or top-dose-only effect, or another doubt; inactive = no such curve, though single readings can be large or run the other way. No potency is given beside an inconclusive call; the fits are too rough. Potency is read from the fitted curve at half-maximal effect; tags tell the direction and shape of the fitted curve.",
  "data": [
    {"assay": "qHTS of TDP-43 Inhibitors; also: nearly all actives have a fitted effect of over 50% in size", "conditions": "TDP-43 expressing yeast growth rescue, BacTiter-Glo, 24 h; series mostly up to 46.1 µM", "procedure,_shortened": "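Cell-based yeast growth screen: TDP-43 expression induced in galactose, inoculum OD600=0.02 after raffinose pregrowth to mid-log. Read-out BacTiter-Glo luminescence at 24 hr, 30 deg C; inhibition of toxicity seen as signal increase.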", "values": [
      {"smiles": "COc1ccc(NC(=O)C2Cc3c(-c4ccc5c(c4)OCO5)ccnc3O2)cc1", "note": "(stereo unspecified)", "Potency": "active: 25.1 µM"},
      {"smiles": "COCCNC(=O)Cn1c(-c2cccs2)cc2cc(Cl)ccc21", "Potency": "inactive"},
      {"smiles": "O=C(COc1ccccc1)NC1CCS(=O)(=O)C1", "note": "(stereo unspecified)", "Potency": "inactive"},
      {"smiles": "O=[N+]([O-])c1nn(-c2ccc(Cl)cc2)n(O)c1=NCc1cccnc1", "Potency": "active: 12.6 µM"},
      {"smiles": "Cc1ccsc1CN(C(=O)COc1ccccc1Cl)C1CCS(=O)(=O)C1", "note": "(stereo unspecified)", "Potency": "inconclusive [activator, full curve, poor fit]"},
      {"smiles": "O=C(Nc1ccc(S(=O)(=O)N2CCCCC2)cc1)c1ccccc1Cl", "Potency": "inconclusive [activator, single point]"},
      {"smiles": "CN1c2ccccc2SC2C(c3ccccc3)=NOC21", "note": "(stereo unspecified)", "Potency": "active: 17.8 µM"},
      {"smiles": "Nc1cc(N)nc(SCc2ccccc2)n1", "Potency": "inactive"},
      {"smiles": "Cc1cccn2c(=O)nc(SCC(=O)N3N=C(c4cccs4)CC3c3ccc(F)cc3)nc12", "note": "(stereo unspecified)", "Potency": "inconclusive [activator, partial curve]"},
      {"smiles": "COc1cc2sc(-c3ccccc3OC)c(-c3ccc(O)cc3)c2cc1OC", "Potency": "active: 15.8 µM"},
      {"smiles": "COCCCNc1nc2ccccc2nc1NS(=O)(=O)c1ccc(C)c(C)c1", "Potency": "inconclusive [activator, single point]"},
      {"smiles": "Cc1ccc2scc(N3CCCCC3C)c(=O)c2c1", "note": "(stereo unspecified)", "Potency": "inconclusive [activator, partial curve]"},
      {"smiles": "CC(C)(C)c1cc(NC(=O)COC(=O)c2ccccc2O)n(-c2ccccc2)n1", "Potency": "inactive"},
      {"smiles": "Cc1snc(SCc2ccc(Cl)cc2)c1C#N", "Potency": "inconclusive [activator, partial curve]"},
      {"smiles": "CCc1nc2c(OCC(=O)c3ccc(F)cc3)cccn2c1N(C)C(=O)COc1ccccc1", "Potency": "inconclusive [activator, full curve, poor fit]"},
      {"smiles": "Cc1ccc(CNS(=O)(=O)c2ccc([N+](=O)[O-])cc2)cc1", "Potency": "inconclusive [activator, partial curve]"},
      {"smiles": "COc1ccc(C2CC(c3ccc(F)cc3)=NN2c2ccccc2)cc1OC", "note": "(stereo unspecified)", "Potency": "inconclusive [activator, partial curve]"},
      {"smiles": "COc1ccc(CSc2cccc3cccnc23)cc1[N+](=O)[O-]", "Potency": "inconclusive [activator, single point]"},
      {"smiles": "O=C(c1ccccc1)c1ccc2nc(N3CCCCC3)c3nncn3c2c1", "Potency": "active: 20 µM"},
      {"smiles": "Cc1nc(SCC(=O)Nc2ccc3c(c2)OCCO3)nc(C)c1C", "Potency": "inactive"},
      {"smiles": "Cc1ccn2cc(-c3cccc(S(=O)(=O)N4CCCC4)c3)nc2c1", "Potency": "inconclusive [activator, partial curve]"}
    ]}
  ]
}
